Source: PubChem BioAssay AID651567 (National Center for Advancing Translational Sciences (NCATS), 2012)
The campaign covered roughly 1,200 compounds. About 10 (0.8%) were called active. Roughly 4% stayed inconclusive and do not appear here. Calls come from the whole dose curve; as a rule, active = well fitted inhibition curve with a large enough effect; inconclusive = small, poorly fitted or top-dose-only effect; inactive = no such curve, though single readings can be large or run the other way. Some of the results follow.

experiment: qHTS Assay to Find Inhibitors of Chronic Active B-Cell Receptor Signaling: Hit Validation in OCI-Ly3 Assay; settings: OCI-Ly3 IkB-luciferase reporter, Chroma-Glo luminescence, 4 h; series mostly up to 46.1 µM; activity change, negative = inhibition: at the top concentration
In short: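 Readout is dual-colour luminescence: IkB-alpha-luciferase fusion (green) against unfused luciferase (red), plus their ratio, scaled between basal cells and 10 uM MG-132. OCI-Ly3 cells, 0.5% FBS IMDM, compound with doxycycline (80ng/ml solution), 4 hrs at 37C; curves fitted and classed.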
% is set by controls: 0 for no effect and ±100 for the full control effect.

Activity change, negative = inhibition, inactive:
Cc1cccc(N(C)S(=O)(=O)c2ccc(-c3cc(C)no3)s2)c1 -6.23%
COc1cc2nc(=S)n3[nH]c(CCn4nc(C)cc4C)nc3c2cc1OC -0.711%
CCCC(=O)Nc1ccc2c(c1)nc(CN1CCN(C(=O)OCC)CC1)n2CC 0.0124%
OC(C#Cc1ccccn1)c1cccs1 (stereo not drawn) -1.31%
Cc1cccc(NC(=S)NNC(=O)CCn2cc(C)cn2)c1 -0.56%
CCOc1ccc(NCc2ccccc2OCc2cccc(F)c2)cc1 -3.97%
C[C@]12CCC(=O)C=C1CC[C@@H]1[C@@H]2[C@@H](O)C[C@@]2(C)[C@H]1CC[C@]2(O)C(=O)CO -0.458%
CCCCC1C(=O)CC[C@H]2[C@@H]1CC(=O)[C@@H]2C/C=C\CCCC(=O)O (stereo partly drawn) -5.28%
COc1cc2c(cc1OC)C1=CC(=O)C(=O)N1C(C)(C)C2 -0.787%
Cc1ccc(C(=O)Nc2ncc(Cc3ccc(SC(F)F)cc3)s2)cc1 -0.644%
COc1ccc(/C=N/NC(=O)c2[nH]c3ccc(C)cc3c2-c2ccccc2)c(C(=O)O)c1OC -0.812%
CCOc1ccccc1NS(=O)(=O)c1ccc(-c2cnc(C3CC3)o2)cc1 -4.32%
CN1CCN(C(c2ccccn2)c2cc(Cl)c3cccnc3c2O)CC1 (stereo not drawn) -9.54%
CCOc1cc(CNc2ccc3c(c2)OCCO3)cc(Br)c1OCC -7.23%
N#CC1=C(N)Oc2cc(N)ccc2C1c1cccc(Br)c1 (stereo not drawn) -16.8%
Cc1ccc(/C=N/NC(=O)C2COc3ccccc3O2)s1 (stereo not drawn) -0.509%
Cn1cccc1/C=C1\SC(=Nc2ccc(O)cc2)NC1=O 15.8%
COc1c(Br)cc(Br)cc1/C=N/NC(=O)c1cccnc1 -0.0712%
CCOC(=O)C1=C(C)NC(C)=C(C(=O)OCC)C1/C=C/c1ccccc1 -3.69%
COc1ccc(N(CC(=O)NC2CCCC2)C(=O)Cn2nnc(-c3ccc(OC)c(OC)c3)n2)c(OC)c1 0.0475%
COc1cc(-c2noc(C)c2-c2ccc3[nH]ccc3c2)cc(OC)c1OC -18.4%
CCOc1ccc(S(=O)(=O)N(CC(=O)NN=C2CCN(C)CC2)c2ccc(C)cc2)cc1 0.165%
CCOC(=O)c1[nH]c(C)c(C(=O)N2CCc3ccccc32)c1C -1.95%
CCOC(=O)c1[nH]c2c(c1C)C(=O)CC(c1ccc(F)cc1)C2 (stereo not drawn) -0.272%
CCCCOc1ccccc1NC(=O)Cn1c(-c2nonc2N)nc2ccccc21 0.738%
O=C(O)c1ccc(CSc2nnc(-c3ccco3)o2)cc1 -0.305%
COc1ccc(CC(=O)OCC(=O)c2c[nH]c3ccccc23)cc1 -2.12%
COc1cccc(-c2cc(=O)c3cc(NC(=O)c4ccc(N(C)C)cc4)ccc3[nH]2)c1 -0.593%
Cc1ccc(-c2oc3ncnc(N)c3c2-c2ccc(C)cc2)cc1 0.36%
OCC1OC(n2cnc3c(NC4CCCCC4)ncnc32)C(O)C1O (stereo not drawn) -1.25%
Cc1cccc(Cn2cc(/C=C/[N+](=O)[O-])c3ccccc32)c1 -2.08%
CNC(=S)N/N=C/c1ccc(N2CCOCC2)s1 -7%
COc1ccc2c(c1)C(C)=CC(C)(C)N2S(=O)(=O)c1ccc(Br)cc1 -3.36%
COC(=O)C1CC23C=CCN4CCC5(c6ccccc6NC15C2C)C43 (stereo not drawn) -2.91%
Fc1ccc(NC(=S)N/N=C/c2ccc(F)c(F)c2)cc1 -0.4%
O=C1N/C(=C/c2ccc(N3CCOCC3)o2)C(=O)N1c1ccccc1 -1.34%
COc1ccc2c(c1)c(/C=N/Nc1nc3ccccc3[nH]1)c(C)n2C -10%
COc1ccc(C2=Nn3c(nnc3C3CCCCC3)SC2)cc1OC -1.13%
COCCCNC(=O)C(=O)Nc1ccc2c(c1)N(S(=O)(=O)c1cccs1)CCC2 -0.939%
CCN(CC(=O)Nc1cc(Cl)ccc1C)C(=O)C1CC1 -0.432%
COc1ccc(CCNCC(O)COc2cccc(Br)c2)cc1 (stereo not drawn) 0.309%
Cc1nc(NC(=O)c2cnccn2)ccc1Br -3.84%
CC(=O)[C@H]1CC[C@H]2[C@@H]3CCC4=CC(=O)CC[C@]4(C)[C@H]3CC[C@]12C -0.321%
Cc1c(CCC(=O)N[C@@H](CC(C)C)C(=O)O)c(=O)oc2cc3oc4c(c3cc12)CCCC4 -0.513%
CCCOc1ccccc1C1CC(=O)Nc2cc3c(cc21)OCCO3 (stereo not drawn) -24.4%
C=CCc1ccc(OCCOc2ccc(/C=N/n3cnnc3)cc2OCC)c(OC)c1 -0.818%
CCOC(=O)c1c(C)n(C)c2ccc(OC)c(NC(=O)CN3CCN(C(=O)c4ccco4)CC3)c12 -0.0869%
CNc1nc2c(N)ncnc2n1[C@H]1O[C@@H](CO)[C@H](O)[C@@H]1O -0.652%
CCN1C(=O)C(O)(C2COC(C)(C)CC2=O)c2cc(Br)ccc21 (stereo not drawn) -6.91%
CN1CCN(Cc2cc(COCc3ccccc3)c3cccnc3c2O)CC1 -1.23%
COc1ccc(NC(=O)CSc2nc(N)c(C(=O)Nc3ccc(N(C)C)cc3)s2)cc1 -2.29%
Cc1ccc(CCC(=O)Nc2ncc(Cc3cc(Cl)ccc3Cl)s2)o1 -0.804%
CCOc1ncccc1C(=O)N1CCN(c2cc(Cl)ccc2C)CC1 -5.75%
COc1cc(/C=C/c2ccc3cccc(O)c3n2)cc(OC)c1OC 122%
CCOc1ccccc1N1CSC2=C(C#N)C(c3c(OC)ccc4ccccc34)CC(=O)N2C1 (stereo not drawn) -2.24%
CCCNC(=O)c1ccc(-c2nn(C)c(=O)c3ccccc23)cc1 -1.61%
COc1ccc(-c2cnc3c(c2)CCC3(C#N)C#N)cc1 -4.01%
Cc1c(CCC(=O)N2CCC(C(=O)O)(c3ccccc3)CC2)c(=O)oc2cc3oc4c(c3cc12)CCCC4 -1.21%
COc1cc(NC(=O)COC(=O)Cc2ccc(-c3ccccc3)cc2)cc(OC)c1 -2.72%
CCCSc1nc(C)c(C(C)=O)cc1C#N -0.455%
COCCN(Cc1cc2cc(C)cc(C)c2nc1Cl)C(=O)Nc1ccccc1 -1.1%
CCOC(=O)c1ccc(-c2c(-c3cc(OC)c(OC)c(OC)c3)noc2C)cc1F -3.94%
CC(C)Oc1ccccc1C1CC(=O)Nc2cc3c(cc21)OCCO3 (stereo not drawn) -4.7%
CCN(CC)C(=S)NC(=O)c1ccc(F)cc1 -0.736%
CCOc1cc(/C=C2\CN(C)C/C(=C\c3ccc(O)c(OCC)c3)C2=O)ccc1O -16.9%
CCOC(=O)c1c(C)oc2c1cc(NS(=O)(=O)c1ccc(C(=O)O)cc1)c1ccccc12 -5.36%
COc1ccccc1-c1nnc(Nc2nc3c(OC)cccc3s2)o1 14.5%
CC1=C(C(=O)Nc2ccc(CC(=O)NCc3ccc(OC(C)C)cc3)cc2)SCCO1 -3%
CCc1ccc(NC(=O)C(C)OC(=O)/C=C/c2ccc(O)c(OC)c2)cc1 (stereo not drawn) -10.2%
COc1cc(C(=O)N/N=C(\C)Cc2ccccc2)cc(OC)c1OC -1.22%
COc1cc(/C=C2/S/C(=N/S(=O)(=O)c3ccccc3)NC2=O)c([N+](=O)[O-])cc1OC -6.81%
COc1ccccc1NC(=O)N1CCC(c2nc3cc(C)c(C)cc3[nH]2)CC1 -3.12%
CC1=C/C(=N\NC(=S)NCc2ccccc2)CC1 -3.6%
COc1cc(C(=O)N/N=C/c2sccc2C)cc(OC)c1OC -3.66%
CCCCC[C@H](O)/C=C/[C@@H]1[C@@H](C/C=C\CCCC(=O)O)[C@@H](O)C[C@H]1O -0.871%
Cc1cc(C)c2nc3sc(C(=O)N4CCOCC4)c(N)c3cc2c1 -8.28%
COc1ccc(CCNC(=O)c2cnc3scc(C)n3c2=O)cc1OC -0.161%
O=C(Oc1c(CN2CCOCC2)cc(Cl)c2cccnc12)c1ccccc1Cl -5.93%
COc1cc(C(=O)N/N=C/c2cc([N+](=O)[O-])cs2)cc(OC)c1OC -0.917%
CCOC(=O)C(C)Oc1cccc2c(=O)n(CC(=O)NCc3ccco3)ccc12 (stereo not drawn) -1.21%
Cc1ccc(NC(=S)N/N=C/c2c(Cl)cccc2Cl)c(C)c1 -4.26%
O=S1(=O)C=C(Sc2nc3cc(Cl)ccc3o2)c2ccccc21 1.19%
CCN(CC)c1ccc2c(c1)OC(N)=C(C#N)C2c1cccnc1 (stereo not drawn) -5.73%
COc1ccc(OCCOC(=O)c2[nH]c(C)c(C(C)=O)c2C)cc1 -0.836%
COc1ccc(C2CC(c3ccc(OC)c(OC)c3)=NN2C(=O)c2ccccc2)cc1 (stereo not drawn) -0.859%
Cc1[nH]n(C(N)=S)c(=O)c1N=Nc1ccc2ccccc2c1 -3.53%
CSc1nc(SCC(=O)NCc2ccco2)c2c3c(sc2n1)COC(C)(C)C3 -2.6%
Cc1ccccc1C(=O)N1CCC(C(=O)N2CCN(Cc3ccc4c(c3)OCO4)CC2)CC1 0.546%
N#CCSc1nc(N)c(C#N)c(C2CCCCC2)c1C#N -1.6%
O=C(Cc1cccs1)N/N=C/C=C/c1ccco1 -3.11%
CC[C@]12c3[nH]c4cc(CCC(=O)N(C)C)ccc4c3CCN1C(=O)[C@@H](CC(=O)NCC13CC4CC(CC(C4)C1)C3)C[C@@H]2C(=O)N1CCN(C(=O)c2ccco2)CC1 -3.16%
CCOc1ccccc1OCC(=O)N/N=C(\C)Cc1ccc(OC)cc1 -0.43%
O=C(CSc1cccc[n+]1[O-])c1ccccc1Br -1.23%
Cc1cccc(C(=O)N[C@H](C(=O)Nc2nc3ccccc3[nH]2)C(C)C)c1 -5.47%
CNC(=S)N/N=C(\C)c1cccc([N+](=O)[O-])c1 -0.379%
COc1cc(C(=O)NNC(=S)Nc2ccc(S(N)(=O)=O)cc2)cc(OC)c1OC -0.879%
CCCC(=O)Nc1ncnc2c1ncn2[C@@H]1O[C@@H]2COP(=O)(O)O[C@H]2[C@H]1OC(=O)CCC -0.475%
CC(C)(CNC(=O)CO/N=C1/C=C2CCC3C(C(O)C[C@@]4(C)C3CC[C@]4(O)C(=O)CO)[C@@]2(C)CC1)C(O)C(=O)O (stereo partly drawn) -1.46%
CC(/C=N/NC(=O)c1cc(-c2ccncc2)nc2ccccc12)=C\c1ccco1 -3.13%
COc1ccc(C(=O)N[C@H](C(=O)Nc2nc3ccccc3[nH]2)C(C)C)cc1 26%
Cc1ccc2[nH]c(C(=O)N/N=C/c3ccccc3C(=O)O)c(-c3ccccc3)c2c1 -1.78%
COc1ccccc1/C=N/NC(=S)Nc1cccnc1 -0.287%

Potency, inactive:
S=C(Nc1ccccn1)c1ccccn1
